The supplement of paper PMC3334620
Over roughly 33,000 sequences, “E-score (-0.5 to 0.5)” has its median near -0.053; the highest 2% begin near 0.37. The list shows a part of the results.

target: Hap1 (UniProt P0CE41); assay: PBM E-score (8-mer binding enrichment) (E-score (-0.5 to 0.5)); higher = stronger / more preferred TF binding; most listed sequences are background and not binding sites; details: protein concentration: 200 nM; construct: GST-DNA-binding domain
Procedure, shortened: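 Detection of bound protein used fluorescent anti-GST, with scans normalised by masliner. The proteins were GST-tagged yeast transcription factors applied at about 100-200 nM to universal all-10-mer Agilent arrays made double-stranded by primer extension. Each ungapped eight-base word, pooled with its reverse complement, was scored with an E-score from the Universal PBM Analysis Suite.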

Chain of UniProt P0CE41 (P0CE41 whole entry, the tested form may be a part): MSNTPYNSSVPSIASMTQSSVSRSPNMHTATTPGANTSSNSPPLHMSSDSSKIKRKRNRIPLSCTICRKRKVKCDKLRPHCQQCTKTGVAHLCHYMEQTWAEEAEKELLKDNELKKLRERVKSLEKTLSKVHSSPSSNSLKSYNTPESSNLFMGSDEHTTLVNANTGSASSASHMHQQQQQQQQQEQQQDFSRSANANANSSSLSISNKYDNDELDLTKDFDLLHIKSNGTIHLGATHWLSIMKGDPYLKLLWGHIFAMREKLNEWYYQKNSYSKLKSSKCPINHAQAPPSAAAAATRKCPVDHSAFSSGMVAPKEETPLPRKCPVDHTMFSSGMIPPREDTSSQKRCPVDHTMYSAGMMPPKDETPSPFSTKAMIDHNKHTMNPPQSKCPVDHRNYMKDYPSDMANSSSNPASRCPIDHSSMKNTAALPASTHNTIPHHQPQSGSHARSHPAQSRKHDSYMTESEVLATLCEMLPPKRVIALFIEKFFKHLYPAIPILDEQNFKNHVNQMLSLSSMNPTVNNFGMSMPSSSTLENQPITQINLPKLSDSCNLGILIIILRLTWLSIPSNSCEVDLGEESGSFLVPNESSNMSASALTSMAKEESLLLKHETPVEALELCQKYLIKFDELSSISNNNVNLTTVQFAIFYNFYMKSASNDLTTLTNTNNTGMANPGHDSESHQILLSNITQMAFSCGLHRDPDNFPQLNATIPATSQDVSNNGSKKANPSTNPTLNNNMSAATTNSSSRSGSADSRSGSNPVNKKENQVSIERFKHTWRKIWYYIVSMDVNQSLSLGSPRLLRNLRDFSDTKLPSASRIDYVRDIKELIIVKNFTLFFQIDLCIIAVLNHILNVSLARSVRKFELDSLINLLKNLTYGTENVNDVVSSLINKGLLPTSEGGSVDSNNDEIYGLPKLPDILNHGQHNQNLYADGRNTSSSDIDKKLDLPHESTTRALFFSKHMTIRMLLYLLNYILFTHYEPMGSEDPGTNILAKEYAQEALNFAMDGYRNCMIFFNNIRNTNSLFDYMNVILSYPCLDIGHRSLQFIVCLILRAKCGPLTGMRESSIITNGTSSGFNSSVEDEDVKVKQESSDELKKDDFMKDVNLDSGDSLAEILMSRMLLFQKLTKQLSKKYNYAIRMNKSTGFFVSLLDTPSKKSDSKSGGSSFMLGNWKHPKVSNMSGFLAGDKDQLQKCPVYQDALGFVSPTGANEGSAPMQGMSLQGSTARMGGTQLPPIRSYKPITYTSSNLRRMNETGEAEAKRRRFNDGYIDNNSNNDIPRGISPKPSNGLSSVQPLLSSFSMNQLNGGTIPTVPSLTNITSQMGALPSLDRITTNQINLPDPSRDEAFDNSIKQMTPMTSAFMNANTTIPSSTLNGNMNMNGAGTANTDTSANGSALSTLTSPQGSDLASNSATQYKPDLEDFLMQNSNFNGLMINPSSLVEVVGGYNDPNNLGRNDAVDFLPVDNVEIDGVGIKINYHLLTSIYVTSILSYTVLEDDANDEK

Sequence	PBM E-score
CATATTCC	0.0564
CAGGTACA	-0.164
ACCTGCCC	-0.0981
AATGCCAA	-0.159
AACGGTCC	0.244
AAACAAGC	0.0857
AGCACCTG	-0.232
GCTATACC	0.106
CGCTCACC	-0.0406
GGCCCGAC	0.275
AACTCTTA	-0.0718
GACATCGA	0.00885
ATCGAGGA	-0.118
CGCACCGC	0.0938
ATGTATTA	-0.0837
TACTCGCA	-0.0609
AAGCTACC	-0.0294
ACACTCAA	-0.126
GTTACGGA	0.239
AAGGTGCG	0.0297
CCGGGACA	0.299
GCTGTACC	-0.0479
AGGATTAG	-0.165
ACTCTCTG	-0.271
ATTTGTTC	0.058

Sequence	PBM E-score
CGCACGCC	-0.0211
GGTCGTAA	0.131
GAGTGTCC	0.06
AATAACCT	-0.222
ACATTCAA	-0.0646
AGGCATAC	-0.226
AGCTTACC	0.0107
CCATCATA	-0.0751
GAGGTGAC	-0.0273
ACGTCACG	-0.0369
CGGAATGC	0.281
AATGGCCC	-0.0435
GAGACAAC	0.0536
AAAGCAGT	-0.164
ACTCAGAA	0.00152
AGGTTAAT	-0.0871
AACGAGGG	-0.249
CTTATCTC	0.196
CAGACCTG	-0.165
GAAGGCTA	-0.148
CTATGAAC	-0.192
GCTGAAAA	0.0469
AACACCAC	-0.109
AGTAGTCA	-0.282
CGGATCCA	0.318

Sequence	PBM E-score
AGAGGACT	-0.304
AGGTTTAC	-0.146
ATCCGATA	0.453
GGGTATCA	-0.0318
CACGACAA	-0.156
CTCCCCTC	0.0651
AAGTACAA	-0.137
CTGAGAAA	-0.254
CTCTTTTC	-0.0717
GACGTGTA	-0.135
AACACGAA	0.116
CTCCCGGA	0.376
AAGATGCG	0.0191
TCGATCCA	-0.0724
ATGCGCGA	0.188
ACTGGAGA	-0.0459
ATCACAAG	-0.208
ATCAGCAA	-0.0616
AAAGACCC	0.0101
ATGCTTGA	-0.0593
TGACATCA	-0.076
ACACGTTC	-0.103
ACCATCGA	-0.25
GTCAGCAA	-0.157
AGCCATTA	0.0356

Sequence	PBM E-score
AAGAAACC	0.11
TAATTAGA	0.0224
AATGCCGG	0.384
CATAGGCC	0.0871
CTACATAA	-0.151
GTTGCAAC	-0.0181
TATAACCA	-0.0424
CTAAAGTC	-0.127
CCTGGAGC	-0.197
ACTATTAC	-0.00957
ACGGCCGG	0.392
AATCTTGC	-0.0682
TAAGCGAA	-0.0435
ACATTTGA	0.0244
GGCTCAAA	0.134
CCAACCTC	0.0408
ACTCGCCC	0.173
AAGAGCTA	-0.0798
CTTGGCGA	-0.147
AGACCAAC	-0.198
CAAGGATG	-0.287
GCGATCAC	0.0413
AAAAATAT	-0.00656
ATTGATTG	0.122
GCTTTAAC	-0.039

Sequence	PBM E-score
ATAAATTG	0.03
CCATTCCC	0.0749
CGTGAACG	-0.133
CTAGGATA	-0.0845
ACGCTATG	-0.122
AAAACGTA	-0.274
CGTTCACC	0.0701
GACTTTGC	0.0365
AGTATCTC	0.109
AAAACATA	-0.0586
GACGGATC	0.132
AATACGTG	-0.187
GCCAGCTA	-0.211
CGGGTGAA	0.317
GGCCGGAC	0.398
CCCGCGCG	0.3
GAGAGAAA	-0.0792
GGACCCAA	0.124
GCTATTCA	-0.0571
TAACCGTA	-0.0318
ATCCAGGG	-0.113
AGTCCGGG	0.393
CTGCCTAC	-0.186
CGTCGCCA	-0.204
AATCCAGA	-0.011

Sequence	PBM E-score
ATGCGGCG	0.133
GTCCTGAA	-0.205
AACTCGTG	-0.0683
AAACTGTT	0.0537
AACATTCT	-0.0982
CTGGACAC	-0.0719
CAGAAGAA	-0.196
TCGGACGA	0.414
ACTAAAAT	-0.129
AGCAACTG	-0.112
CTATTCCA	-0.0505
AGGATCAT	-0.168
AATCGCCC	0.0407
GCGGGGTA	0.123
AGCCCGGG	0.36
GCAATCAA	-0.199
CCGCGACA	0.105
ATTACCCC	0.16
GGTGAGGA	-0.00088
TACAATGA	-0.239
CTAAATAA	-0.13
CGGTCATA	0.411
AAGCACGT	-0.129
TAGCAAGA	-0.249
ATTTGGAC	-0.185

Sequence	PBM E-score
GCTACTAC	0.0744
CATAGAGA	-0.215
CCGGACAG	0.382
ACCACCGC	0.14
CAATTACA	-0.0776
AATGGCAA	-0.168
AGACGCTA	-0.169
CCCGCCTC	-0.00272
CCCGGAAG	0.358
GGTAGGAC	0.0611
AGGTCACG	-0.124
ATATTAGC	-0.0105
ATAGCGGC	0.221
CCTAGCAC	-0.131
AATGACAC	-0.184
CTCGACGC	-0.00713
TAAGATTA	-0.0279
CCAGATGG	-0.21
CCATCTAC	-0.0218
CTGTACAC	-0.128
ACGTTCAC	-0.13
ACTATAGC	-0.074
CGGAAATC	0.352
AGAACTAC	-0.128
CACCGCTG	-0.0442

Sequence	PBM E-score
GAAGCCAA	-0.145
CGCAAAGA	0.0599
ATTAATGC	0.00917
GAATGCAC	-0.00315
ACCCGCTC	-0.0386
ATGGATCG	0.247
GCTGCTCA	-0.241
CACAAGAG	-0.0458
ATAGGGAA	0.036
GGCACTCA	-0.285
ATGGCTCG	-0.072
CAGCATGC	-0.178
CGACAAGA	0.0988
CTCACTCA	-0.213
TGCGCGCA	0.178
ATCCTTCC	-0.104
AAGCGCGT	0.086
AAGAGTAG	-0.00909
ACATTCGC	0.0143
ACCAACGT	-0.225
CGTGAAGC	-0.131
TGAGGAAA	-0.0575
AAGTGGGT	0.0756
AAGGACGC	-0.0558
ATGAAAAA	-0.063

Sequence	PBM E-score
AGTTTCAG	-0.0274
ACCGGTCT	0.179
ACGGCTAC	0.105
CCGGACCC	0.374
CAGTTAAG	-0.0756
CTGTGAAC	-0.134
CTTTAGCC	0.0453
GGCCCCTA	-0.0472
CATCGTGA	-0.167
ATAGTGGA	0.0468
CGTTCGTC	-0.0333
GACAACGA	0.0366
ATCAATAC	-0.131
GAGATGCC	-0.055
CCCTTATC	0.199
TAGGTCGA	-0.104
GTAGGCTA	-0.15
ATACAACA	-0.182
ACAAACGG	0.166
